Results on 98 variants are retold here after a collection of fitness landscapes (doi:10.1016/j.celrep.2020.107928).

First the molecules themselves.
B1: Caulobacter ParB omega fusion; a variant is named by its letters at X, in order, B8GW30 (parent)
chain: MESVVVGEPGMSEGRRGLGRGLSALLGEVDAAPAQAPGEQLGGSREAPIEILQRNPDQPRRTFREEDLEDLSNSIREKGVLQPILVRPSPDTAGEYQIVAGERAWRAAQRAGLKTVPIMVRELDDLAVLEIGIIENVQRADLNVLEEALSYKVLMEKFERTQENIAQTIGKSXSHVANXMRLLXLPDEVQSYLVSGELTAXHARAIAAAADPVALAKQIIEGGLSVRETEALARKAPNLSAGKSKGGRPPRVKDTDTQALESDLSSVLGLDVSIDHRGSTGTLTITYATLEQLDDLCNRLTRGI

Whole data set: some 81,000 sequences, median “one-hybrid fitness for binding parS DNA” near -0.17, cut for the highest 2% near 0.51. The list shows a part of the results.

The test covers variants of B1. The test is described as follows: one-hybrid fitness for binding parS DNA (scaled: cognate 1, non-cognate 0); higher = stronger binding. The settings on record: with parS DNA site. In short, it runs like this:
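Bacterial one-hybrid selection in E. coli USO rpoZ- hisB- pyrF- with a HIS3 reporter carrying the site 19 bp from the promoter, screening Caulobacter ParB libraries with four specificity codons randomised (NNS). Cells grew 48 hours at 37°C on M9-minus-histidine plus 0.1 mM IPTG and 5 mM 3-AT. Plasmids before and after selection were Illumina-sequenced, three replicate libraries pooled, and variants under 10 reads dropped. Fitness is the log change in variant-to-wild-type read ratio, rescaled to cognate 1, non-cognate 0.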
Consider NARE, for which the “one-hybrid fitness for binding parS DNA” value was at most 0.2.
Turning to IISR, the “one-hybrid fitness for binding parS DNA” value is at most 0.2.
ESKM: the “one-hybrid fitness for binding parS DNA” value was at most 0.2.
The result for HISF reads at most 0.2; that for LKAR, at most 0.2; that for MHER, at most 0.2.
In the case of LNMT it was at most 0.2; in that of ECIE, at most 0.2; in that of KVPY, at most 0.2.
In the case of LISG it was at most 0.2; in that of LQQM, at most 0.2; in that of FPGY, at most 0.2.
For PRTC, the “one-hybrid fitness for binding parS DNA” value is at most 0.2.
In the case of VKTW it was at most 0.2.
In the case of QIRK it was at most 0.2; in that of PTNQ, at most 0.2.
As to KKTC, the “one-hybrid fitness for binding parS DNA” value was at most 0.2.
As to RQQC, the “one-hybrid fitness for binding parS DNA” value turned out to be 0.951.
For DSPG, the “one-hybrid fitness for binding parS DNA” value was at most 0.2.
In the case of RGKS it was 0.927; in that of LWRS, at most 0.2.
The result for LAWM reads at most 0.2; that for KLCD, at most 0.2; that for QLWC, at most 0.2.
For the variant PRRG, the “one-hybrid fitness for binding parS DNA” value was at most 0.2.
QLGL: the “one-hybrid fitness for binding parS DNA” value was at most 0.2.
As to MCCG, the “one-hybrid fitness for binding parS DNA” value was at most 0.2.
The result for RRYD reads at most 0.2; that for SQTL, at most 0.2.
The result for TFHR reads at most 0.2.
The result for CVLC reads at most 0.2; that for GCTR, at most 0.2.
Regarding PQAW, the “one-hybrid fitness for binding parS DNA” value is at most 0.2.
The result for DVDW reads at most 0.2; that for RDLQ, at most 0.2.
The result for HAYA reads at most 0.2; that for CSKT, at most 0.2.
On to NQNS, for which the “one-hybrid fitness for binding parS DNA” value is at most 0.2.
In the case of RHIW it was at most 0.2; in that of LDST, at most 0.2; in that of RSWI, at most 0.2.
The result for LPWM reads at most 0.2.
In the case of GRPK it was at most 0.2.
Consider PQAR, for which the “one-hybrid fitness for binding parS DNA” value was at most 0.2.
The result for CNRG reads at most 0.2.
The result for ARAI reads at most 0.2.
In the case of PSVN it was at most 0.2; in that of FSPF, at most 0.2.
Regarding RTTD, the “one-hybrid fitness for binding parS DNA” value was at most 0.2.
Consider ECCC, for which the “one-hybrid fitness for binding parS DNA” value is at most 0.2.
Regarding WKKC, the “one-hybrid fitness for binding parS DNA” value is at most 0.2.
For the variant MVPN, the “one-hybrid fitness for binding parS DNA” value is at most 0.2.
In the case of AMSR it was at most 0.2; in that of SDLA, at most 0.2; in that of APQC, at most 0.2.
In the case of RVKY it was 0.664; in that of MFWR, at most 0.2; in that of YPYG, at most 0.2.
The result for MSYL reads at most 0.2; that for ILQL, at most 0.2.
Consider PRHR, for which the “one-hybrid fitness for binding parS DNA” value was at most 0.2.
Regarding RTEM, the “one-hybrid fitness for binding parS DNA” value turned out to be 0.281.
The result for KGNQ reads at most 0.2.
For IIFS, the “one-hybrid fitness for binding parS DNA” value is at most 0.2.
The result for QHES reads at most 0.2.
The result for RKDG reads 0.939.
In the case of HACH it was at most 0.2; in that of RNQI, at most 0.2; in that of PCLT, at most 0.2.
Take VNTS: the “one-hybrid fitness for binding parS DNA” value is at most 0.2.
Consider WKDC, for which the “one-hybrid fitness for binding parS DNA” value is at most 0.2.
The result for RIIV reads at most 0.2.
IIVG: the “one-hybrid fitness for binding parS DNA” value is at most 0.2.
The result for IPIE reads at most 0.2; that for AQDG, at most 0.2; that for PYLL, at most 0.2.
The result for PPID reads at most 0.2; that for GFQG, at most 0.2; that for TQAR, at most 0.2.
HPVW: the “one-hybrid fitness for binding parS DNA” value is at most 0.2.
Regarding KDTM, the “one-hybrid fitness for binding parS DNA” value was at most 0.2.
As for RPKH, the “one-hybrid fitness for binding parS DNA” value was at most 0.2.
In the case of YRWT it was at most 0.2; in that of KDLA, at most 0.2.
In the case of PRVY, the “one-hybrid fitness for binding parS DNA” value was at most 0.2.
The result for QINP reads at most 0.2; that for FSIR, at most 0.2; that for YRWG, at most 0.2.
The result for TNIR reads at most 0.2; that for LKWS, at most 0.2.
Turning to SATD, the “one-hybrid fitness for binding parS DNA” value was at most 0.2.
With MNNT, the “one-hybrid fitness for binding parS DNA” value is at most 0.2.
As for GAAL, the “one-hybrid fitness for binding parS DNA” value was at most 0.2.
In the case of RFLK it was at most 0.2; in that of QAQY, at most 0.2; in that of RVRV, at most 0.2.
With TRQE, the “one-hybrid fitness for binding parS DNA” value was at most 0.2.
Take PDMG: the “one-hybrid fitness for binding parS DNA” value is at most 0.2.
